Data as given in article PMC6919601, “Identification of Plasmodium dipeptidyl aminopeptidase allosteric inhibitors by high throughput screening” (PLoS ONE, 2019).
Screen size: about 110,000 compounds; about 230 (0.21%) showed an effect of 50% or more. Some of the results follow.

target: DPAP1 (Plasmodium falciparum, UniProt Q8IIJ9); test: primary screen, percent inhibition; read by cleavage of a fluorogenic dipeptide substrate; higher = more effect of the substance; parameters: species or system P. falciparum D10 trophozoite lysates; single well
Sequence (Q8IIJ9 whole entry, looked up): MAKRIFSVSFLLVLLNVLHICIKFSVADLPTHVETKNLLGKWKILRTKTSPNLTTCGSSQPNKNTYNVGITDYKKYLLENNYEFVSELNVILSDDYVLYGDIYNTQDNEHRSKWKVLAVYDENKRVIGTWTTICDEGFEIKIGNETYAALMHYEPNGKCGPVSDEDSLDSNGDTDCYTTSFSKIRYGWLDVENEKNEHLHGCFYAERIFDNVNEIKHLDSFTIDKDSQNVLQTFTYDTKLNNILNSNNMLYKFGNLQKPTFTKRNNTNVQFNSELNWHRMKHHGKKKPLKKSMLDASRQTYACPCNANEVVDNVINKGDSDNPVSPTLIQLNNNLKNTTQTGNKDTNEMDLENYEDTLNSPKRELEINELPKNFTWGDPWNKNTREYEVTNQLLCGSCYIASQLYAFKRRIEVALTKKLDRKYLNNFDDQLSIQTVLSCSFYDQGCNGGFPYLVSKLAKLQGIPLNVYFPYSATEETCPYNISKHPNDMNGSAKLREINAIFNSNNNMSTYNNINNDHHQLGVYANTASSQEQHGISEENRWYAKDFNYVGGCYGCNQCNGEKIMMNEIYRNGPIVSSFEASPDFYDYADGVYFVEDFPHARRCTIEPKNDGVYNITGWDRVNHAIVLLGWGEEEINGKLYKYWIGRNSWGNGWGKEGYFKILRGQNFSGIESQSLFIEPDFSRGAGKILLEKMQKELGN
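Also: 30 min substrate incubation versus DMSO and 10 µM JCP410 controls.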

| SMILES | % Inhibition @ 10 uM [%] |
| --- | --- |
| CN(C)Cc1c(O)ccc2c(-c3ccccc3)cc(=O)oc12 | 22.4 |
| COc1cc(OC)c(C2C(C#N)=C(N)OC3=C2C(=O)CC(c2ccccc2)C3)cc1Br (stereo not shown) | 41 |
| CC(C)(C#CC(O)(c1ccccc1)c1ccccc1)N1CCCCC1 | 0.774 |
| O=c1c(OCc2ccccc2)c(O)cnn1-c1ccccc1 | 3.83 |
| Cc1nc(C)c(NC(=O)N2CCCCC2C)cc1NC(=O)N1CCCCC1C (stereo not shown) | 1 |
| O=C(Nc1ccccc1O)c1cccnc1 | -2.28 |
| CC1=C(C(=O)Nc2ccc(Br)cn2)C(c2cccnc2)C2=C(O)CC(C)(C)CC2=N1 (stereo not shown) | -2.53 |
| CCCn1c(SCc2nc(-c3ccc(C)cc3)no2)nnc1-c1ccccc1 | -5.91 |
| Cc1cccc(C(=O)Nc2sc(Cc3ccccc3)c(C)c2C(N)=O)c1 | 5.31 |
| O=C(NCc1ccccc1Cl)c1ccc(CS(=O)c2ccccc2)o1 (stereo not shown) | -3.09 |
| CCCOc1cccc(C(=O)Nc2cccc3ccccc23)c1 | 0.755 |
| CS(=O)(=O)C1=NN2C(=N)/C(=C\c3cn(CCOc4ccccc4)c4ccccc34)C(=O)N=C2S1 | -1.58 |
| CN1CCN(c2ccc(NC(=O)c3cc(Br)ccc3Cl)cc2)CC1 | 0.606 |
| Cc1cc(C(F)(F)Cl)n2ncc(-c3ccccc3)c2n1 | -1.6 |
| O=C(CN1C(=O)S/C(=C\c2cc3c(cc2Cl)OCO3)C1=O)c1ccccc1 | 0.161 |
| CC(O)CNC(=O)C1CC(=O)N(c2ccc(Br)cc2)C1 (stereo not shown) | -2.58 |
| C=CCn1c(SCC)nc(O)c(CC)c1=O | 2.22 |
| COC(=O)C1=C(C)N(CC2CCCO2)C(=O)/C1=C\c1cc(C)n(-c2ccccc2C(=O)OC)c1C (stereo not shown) | 1.63 |
| Cc1ccc(N(CC(=O)Nc2cccnc2)S(=O)(=O)c2ccc(C)cc2)cc1 | 0.161 |
| CSc1nc(Oc2ccc(F)cc2Cl)cc(-n2ncc(C#N)c2N)n1 | -4.65 |
| CN(CC(=O)N1CCCC1=O)Cc1ccccc1 | -6.06 |
| CC1CCCC(C)N1CCNC(=O)c1cc2ccc3cccnc3c2[nH]1 (stereo not shown) | 4.44 |
| Cc1ccc(CC(=O)N2CCC(c3nc(O)c4nnn(Cc5ccccc5)c4n3)CC2)cc1 | -0.551 |
| C=CCn1c(=N)c(C(=O)NCc2ccccc2)cc2c(=O)n3ccccc3nc21 | 0.279 |
| N=Cc1cc(-c2ccccc2)oc1S | 36.3 |

| SMILES | % Inhibition @ 10 uM [%] |
| --- | --- |
| COc1cc(/C=C2\SC(=O)N(CC(=O)Nc3ccc(C)cc3)C2=O)ccc1O | 1.52 |
| Cc1ccc2c(c1)-c1c(cnn1CC(=O)N1CCN(Cc3ccccc3)CC1)CO2 | -0.563 |
| Cc1c(Cl)cccc1NC(=O)c1ccc(Cl)cc1 | -5.65 |
| CSCCC1Oc2ccccc2C2CC(c3ccccc3O)=NN12 (stereo not shown) | 3.39 |
| CCOC(=O)C1=CN(C(C)C)C=C(C(=O)OCC)C1c1ccccc1OC(C)C | -1.48 |
| Nc1ccc2nc(SCC(=O)Nc3ccccc3C(F)(F)F)sc2c1 | -0.99 |
| COc1ccccc1CNC(=O)C1CCCN(c2ncnc3onc(-c4ccc(F)cc4)c23)C1 (stereo not shown) | -2.53 |
| COc1ccc(C2C(C#N)=C(N)OC3=C2C(=O)CC(C)(C)C3)cc1OC (stereo not shown) | 4.08 |
| COc1ccc(CCn2c(=O)[nH]c3ncccc3c2=O)cc1OC | 3.32 |
| Nc1nonc1-c1nc2ccccc2n1CC(=O)NCCC1=CCCCC1 | -1.11 |
| O=C1CC(c2ccccc2)CC(=O)C1=CNCCN1CCNCC1 (stereo not shown) | 2.18 |
| Cc1ccccc1CS(=O)(=O)C[C@H](NC(=O)N1CCOCC1)C(=O)NC(C)CN(C)C (stereo partly shown) | 1.15 |
| COc1ccc(CCC(C)NCCN2CCCCC2)cc1 (stereo not shown) | 2.1 |
| CCn1cc(CN(C)C(=O)Nc2ccc(Cl)cc2)cn1 | 9.62 |
| COc1ccc(C2C(C#N)=C(N)Oc3c2c(=O)n(C)c(=O)n3C)c(OC)c1OC (stereo not shown) | -7.42 |
| CCC(C(=O)NCc1ccccc1)n1nc(C)c2c(C)n(-c3ccccc3)nc2c1=O (stereo not shown) | -6.36 |
| CCOCCCn1c(SCC(=O)NCC2CCCO2)nc2c(sc3ccccc32)c1=O (stereo not shown) | 5.27 |
| O=C(Nc1ccccc1F)c1ccc(C(=O)Nc2ccccc2F)cc1 | 5.24 |
| Cn1c(NC(=O)C2c3ccccc3Oc3ccccc32)cc(=O)n(C)c1=O | -3.03 |
| CCC(=O)/N=C1\SC2CS(=O)(=O)CC2N1C(C)c1ccccc1 (stereo not shown) | -1.15 |
| CC(C)c1ccc(/C=C2\C(=N)N3N=C(N4CCOCC4)SC3=NC2=O)cc1 | -1.66 |
| COCCOC(=O)C1=C(C)NC(=O)CC1c1ccccc1Cl (stereo not shown) | 5.94 |
| Cc1cc(NC(=O)c2ccc(Br)o2)no1 | -8.86 |
| CCc1ccc(CNC(=O)c2coc(=O)c3ccccc23)cc1 | -3.31 |
| CS(=O)(=O)n1nc(-c2ccco2)nc1NCc1cccs1 | -3.24 |

| SMILES | % Inhibition @ 10 uM [%] |
| --- | --- |
| CC[C@H](NC(=O)[C@H](Cc1ccc(Br)s1)NC(=O)OCc1ccccc1)C(=O)c1nc2ccccc2o1 | -3.04 |
| CCOc1ccc(NC(=O)c2cccc3ccccc23)cc1 | -5.89 |
| CCN(CC)CC/N=C(N)/C(C#N)=C/c1[nH]c2ccccc2c1O | -6.87 |
| COc1cccc(OC/C(O)=C(\C#N)c2nc3ccccc3[nH]2)c1 | -6.04 |
| Cc1nnc(-c2ccc(Cl)cc2)o1 | 3.32 |
| Cc1ccc(CNC(=O)CN2C(=O)c3ccccc3S2(=O)=O)cc1 | 0.826 |
| CCOC(=O)C(C#N)c1ncccc1[N+](=O)[O-] (stereo not shown) | 1.87 |
| COCC(=O)NCCSc1c(-c2ccc(Br)cc2)[nH]c2ccccc12 | 2.64 |
| COc1cc(C(=O)Nc2cc(F)ccc2F)ccc1OC(F)F | 0.709 |
| Cc1cc(C)nc(SCCC(=O)Nc2ccc(Cl)cc2)n1 | 0.145 |
| CCO/C(O)=C1/C(C)=Nc2ncnn2C1c1ccc(C(=O)OC)cc1 (stereo not shown) | -3.37 |
| CCCc1nc(N)c(C#N)c(-c2ccccc2)c1CC | -0.631 |
| COc1ccc(-c2cc(C(=O)Nc3sc4c(c3C#N)CCCC4)no2)cc1 | -4.07 |
| CC1CCCC(N2CCN(Cc3cccc(Cl)c3)CC2)C1 (stereo not shown) | 1.81 |
| COc1ccc(/C=C(\C#N)c2nc(-c3ccc(C)cc3C)cs2)cc1 | 1.08 |
| CC(C)CC(C1=C(O)CCCC1=O)C1=C(O)CCCC1=O | 14.4 |
| COc1ccc(CN2CCCC2)c(C)c1C | 0.472 |
| Cc1ccc(/C=C2/SC(Nc3ccccc3O)=NC2=O)cc1 | 3.1 |
| O=C(CN1C(=O)c2ccccc2Sc2ncccc21)NCc1ccccn1 | -7.87 |
| Cc1ccccc1S(=O)(=O)NC1OC(=O)C(Br)=C1Br (stereo not shown) | 6.42 |
| COc1ccc(C(=O)N/C(=C/c2ccc(-c3ccc(Cl)cc3)o2)C(=O)N(C)C)cc1 | -0.178 |
| CC(=O)N1CCN(Cc2ccc(Br)cc2)CC1 | -0.0494 |
| CCOC(=O)N1CCN(c2cccc(C)c2C)CC1 | -1.02 |
| CC12CN3CC(C)(CN(C1)C3c1ccco1)C2=O (stereo not shown) | -2.55 |
| O=C(NS(=O)(=O)c1ccc(Cl)cc1)c1ccccc1O | 3.54 |

| SMILES | % Inhibition @ 10 uM [%] |
| --- | --- |
| O=[N+]([O-])c1ccc(N2CCN(Cc3c(Cl)cccc3Cl)CC2)cc1 | -0.0494 |
| CC(=O)Nc1cccc(NC(=O)c2cccc(C)c2)c1 | 3.54 |
| CCOC(=O)c1c(NC(=S)NC2CCCCC2)sc2c1CCCC2 | -3.77 |
| CCOc1ccc(-c2nc(CSCC(=O)N3CCC(C(N)=O)CC3)c(C)o2)cc1 | 0.718 |
| O=C(Nc1c(-c2ccc(F)cc2)nc2ccccn12)c1cccc(C(F)(F)F)c1 | -4.23 |
| CNC(=O)c1ccc(CSc2nc3ccncc3n2Cc2cccc(C)c2)cc1 | -0.637 |
| O=C(O)C1CCCCC1C(=O)N1CCN(c2ccccc2F)CC1 (stereo not shown) | 3.86 |
| CCN1C(=O)CC(C(=O)Nc2ccc(OC)cc2)S/C1=N\c1cccc(F)c1 (stereo not shown) | 1.52 |
| CCOCCCNC(=O)c1ccc(CNC(=O)c2ccc3c(c2)OCO3)cc1 | -3.78 |
| Cc1cc2c(c(=O)n1Cc1ccccc1)C(c1cccc(Cl)c1)C(C#N)=C(N)O2 (stereo not shown) | -5.01 |
| O=C(CCC(=O)N1CC2CC(C1)c1cccc(=O)n1C2)NC1CCCCC1 (stereo not shown) | 14.3 |
| Cc1cccc(OCC(=O)Nc2ccc(C(=O)c3ccccc3)cc2)c1 | -0.872 |
| COc1ccc(NC(=O)c2ccccc2Br)c(OC)c1 | 2.22 |
| CCC(Sc1nc(=O)cc(N)n1CCc1ccccc1)C(=O)Nc1ccc(Cl)cn1 (stereo not shown) | 17.3 |
| CCn1c(=O)[nH]c2cc(C(=O)Nc3cc(C)cc(C)c3)ccc2c1=O | -1.61 |
| COCCn1c(Cc2cccn2C)nnc1SCC(=O)NCc1ccccc1Cl | 1.1 |
| Cc1c(Br)c([N+](=O)[O-])nn1CC(=O)NC1CCCCC1 | -1.5 |
| CNC(=O)CN(C)S(=O)(=O)c1ccc(OC)c(OC)c1 | 1.03 |
| CC(=O)c1c(C(C)=O)c(C)n(-c2ccc(C)c(C)c2)c1C | 1 |
| Cc1ccc(-c2cccc(C(=O)N[C@@H](CC(C)C)C(=O)NCC#N)c2)s1 | -3.48 |
| Nc1c(Br)cc(Br)c2cccnc12 | -4.96 |
| CC(=O)N[C@H]1[C@H](Oc2ccc(C)c(C)c2)O[C@H](CO)[C@@H](O)[C@@H]1O | 0.815 |
| CCOC(=O)N1CCC(NC(=O)C2=CCN(S(=O)(=O)c3ccc(OC)cc3)CC2)CC1 | 1.93 |
| O=C1NC(c2ccccc2)=N/C1=C\c1ccc(Cl)cc1 | 3.95 |
| Cc1oc2cc(OC(C)C)ccc2c(=O)c1Oc1ccccc1 | 2.37 |
